Laboratory results from publication PMC6919601, “Identification of Plasmodium dipeptidyl aminopeptidase allosteric inhibitors by high throughput screening” (PLoS ONE, 2019).
Among all 110,000 compounds or so, about 230 (0.21%) showed an effect of 50% or more. This is one part of the list.

These compounds were tested against DPAP1 (Plasmodium falciparum, UniProt Q8IIJ9) (assay: primary screen, percent inhibition; read by cleavage of a fluorogenic dipeptide substrate; higher = more effect of the substance).
Set-up: species or system P. falciparum D10 trophozoite lysates; single well
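Also: 30 min substrate incubation versus DMSO and 10 µM JCP410 controls.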

Sequence of DPAP1 (Q8IIJ9 whole entry, looked up): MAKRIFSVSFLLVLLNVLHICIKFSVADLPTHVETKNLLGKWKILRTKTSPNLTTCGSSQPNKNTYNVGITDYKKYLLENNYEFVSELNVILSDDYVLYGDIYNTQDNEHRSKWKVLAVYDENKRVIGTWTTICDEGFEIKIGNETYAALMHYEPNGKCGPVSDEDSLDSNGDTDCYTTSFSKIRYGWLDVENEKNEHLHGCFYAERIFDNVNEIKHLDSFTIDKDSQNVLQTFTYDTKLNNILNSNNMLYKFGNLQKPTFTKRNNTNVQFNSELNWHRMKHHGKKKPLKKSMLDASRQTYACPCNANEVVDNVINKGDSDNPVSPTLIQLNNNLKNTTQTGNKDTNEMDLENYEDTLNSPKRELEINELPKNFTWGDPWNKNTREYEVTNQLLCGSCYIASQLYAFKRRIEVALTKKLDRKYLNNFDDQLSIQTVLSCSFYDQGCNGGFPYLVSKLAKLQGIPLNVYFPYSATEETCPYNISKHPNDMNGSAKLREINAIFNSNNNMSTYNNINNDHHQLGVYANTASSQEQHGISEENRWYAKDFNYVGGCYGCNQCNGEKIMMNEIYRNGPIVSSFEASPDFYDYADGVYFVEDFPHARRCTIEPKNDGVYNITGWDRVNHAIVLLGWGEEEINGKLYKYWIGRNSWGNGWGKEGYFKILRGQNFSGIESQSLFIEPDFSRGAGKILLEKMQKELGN

Row | SMILES | % Inhibition @ 10 uM
1 | Cc1c(C(=O)OC(C)C)sc(NC(=O)C2c3ccccc3Oc3ccccc32)c1C#N | -6.78%
2 | COc1ccc(C(=O)Nc2nc(N3C(=O)c4ccccc4C3=O)n(-c3ccccc3)n2)cc1 | -0.386%
3 | CC1CC(C)CN(C(=O)C2CCCN(c3nnc(N4CCCC4=O)s3)C2)C1 (stereo not drawn) | -1.08%
4 | CCOC(=O)c1cnc(SCC(=O)N2CCOCC2)nc1N | 2.21%
5 | COC(=O)c1c(NC(=O)C2Cc3ccc(C)cc3C(=O)O2)sc2c1CCCC2 (stereo not drawn) | 0.221%
6 | Cc1ccc(OCC(=O)Nc2ccc(Cl)c(Cl)c2)cc1 | 7.22%
7 | CC(=O)c1ccc(N2CCN(Cc3[nH]cnc3C)CC2)cc1 | 0.472%
8 | O=C(c1cc2c(Cl)nc3ccccc3c2s1)N(Cc1ccco1)CC1CCCO1 (stereo not drawn) | 2.5%
9 | COc1ccc(OC)c2nc(O)c(CCNS(=O)(=O)c3ccc(F)cc3)cc12 | 0.205%
10 | CC(C)C[C@H](NC(=O)c1ccc(OCCc2ccccn2)cc1)C(=O)NCC#N | 7.72%
11 | COc1cc(C2C(C(=O)c3ccc(C)cc3)=C(O)C(=O)N2CCN2CCOCC2)ccc1O (stereo not drawn) | 3.13%
12 | O=S(=O)(Nc1ccccc1-c1ccccc1)c1ccc2c(c1)OCCO2 | 2.95%
13 | COc1ccc(C2=NN(C(=O)CCC(=O)O)C(c3ccc(Br)cc3)C2)cc1 (stereo not drawn) | -4.49%
14 | CCc1nnc(NC(=O)CSc2nc(N)nc(SC)c2C#N)s1 | -1.68%
15 | CC(=O)N1CCc2c(sc3c2c(=O)n(CCc2ccccc2)c(=O)n3Cc2ccccc2Cl)C1 | 3.32%
16 | CCCCSc1nnc2c(n1)OC(c1ccc(C(C)(C)C)cc1)Nc1ccccc1-2 (stereo not drawn) | 1.4%
17 | Cc1ccc(-c2nnn3c2nc(NCc2ccco2)c2ccccc23)cc1 | 2.04%
18 | Nc1ncnc2c1ncn2CCNCCc1ccccc1 | -3.33%
19 | CCc1cccc(CC)c1NC(=O)CSc1nc(C)cc(O)n1 | 2.48%
20 | O=C(Nc1ccc2c(c1)OCCO2)C(F)(F)C(F)(F)C(=O)Nc1ccc2c(c1)OCCO2 | -6.48%
21 | COc1ccc(OC)c(NS(=O)(=O)c2ccc3c(c2)OCCO3)c1 | -8%
22 | CCc1ccc(-c2cc3c(=O)n(CC(=O)NCc4ccc(OC(C)C)cc4)nc(C)n3n2)cc1 | -1.08%
23 | CC(C)Oc1ccc(CC2CCC(=O)N(C)C2=O)cc1 (stereo not drawn) | 2.51%
24 | CC1CCN(S(=O)(=O)c2cccc(C(=O)O)c2)CC1 | -1.22%

Row | SMILES | % Inhibition @ 10 uM
25 | Cc1c(C(c2cccc(O)c2)c2c(C)n(C)n(-c3ccccc3)c2=O)c(=O)n(-c2ccccc2)n1C | 5.03%
26 | Cc1nc(-n2cccc2)sc1C(=O)NCc1ccccc1 | 1.03%
27 | Cn1c2c(c(=O)[nH]c1=O)C(c1ccc(Br)cc1)C1=C(O)c3ccccc3C1=N2 (stereo not drawn) | 7.1%
28 | CC[C@@H](C)[C@H](NC(=O)c1cccc(NC(=O)OC(C)(C)C)c1)C(=O)N[C@@H](CCc1ccccc1)C(=O)COCc1ccccc1 | -7.36%
29 | CCN1CCN(c2ncnc3c2nnn3Cc2ccccc2)CC1 | -2.63%
30 | CCCN(CCC)C(=O)C1=C(C)C(=O)OC12CCC(C)CC2 (stereo not drawn) | -1.89%
31 | COc1ccc(CNc2ccc(C)c(C)c2)cc1OC | 2.78%
32 | Cc1ccsc1/C=C1\CCC(C2CCCC2)C1=O (stereo not drawn) | 13.9%
33 | COCCCNC(=O)c1nnc(Cc2ccc(C)cc2)o1 | -1.68%
34 | COCCCNC(=O)C(=O)c1cn(C)c2ccccc12 | -0.834%
35 | CC1=C(C(=O)Nc2ccc(C)cn2)C(c2cn(C)nc2C)C2=C(O)CC(c3ccccc3)CC2=N1 (stereo not drawn) | 2.51%
36 | CC(NS(=O)(=O)c1ccc(OCC(=O)Nc2ccc(F)cc2)cc1)c1ccccc1 (stereo not drawn) | 5.39%
37 | O=C(CSc1ccccn1)Nc1ccc(Br)cc1Cl | -2.16%
38 | Cc1cccc(N(CC(=O)Nc2cc(C(F)(F)F)ccc2Cl)S(C)(=O)=O)c1 | 8.13%
39 | CC1(C)CC(=O)C(C(C2=C(O)CC(C)(C)CC2=O)c2cc(Cl)cc(Cl)c2O)C(=O)C1 (stereo not drawn) | 1.63%
40 | CCCN(CCC)S(=O)(=O)c1ccc(C(=O)NCc2ccc3c(c2)OCO3)cc1 | -2.39%
41 | O=c1c2ccccc2nc2nc(-c3ccccc3)cc(-c3ccc([N+](=O)[O-])cc3)n12 | 2.55%
42 | CCOC(=O)C1=C(CN2CCN(Cc3ccc4c(c3)OCO4)CC2)NC(=O)NC1c1cccs1 (stereo not drawn) | 5.71%
43 | Cc1cccn2c(=O)c(/C=C3\SC(=S)NC3=O)c(NCCCN3CCOCC3)nc12 | 5.1%
44 | Cc1c(C(=O)N2CCCC2)oc2c1-c1nn(CC(=O)NC(C)c3ccc4c(c3)OCCO4)cc1CC2 (stereo not drawn) | 4.4%
45 | O=C(CSc1ccc(F)cc1)Nc1ccc(F)c(F)c1 | 2.51%
46 | O=C(NCc1ccccc1)C1CC=CCC1C(=O)OCC1CCCO1 (stereo not drawn) | 1.63%
47 | O=C1c2cccc3cccc(c23)C(=O)N1CCN1CCN(C(=O)C23CC4CC(CC(C4)C2)C3)CC1 | -3.85%
48 | CCCOc1ccc(/C=C2\N=C(c3ccccc3)OC2=O)cc1 | 22.7%

Row | SMILES | % Inhibition @ 10 uM
49 | Cc1cccn2c(=O)c3cc(C#N)c(=O)n(CCCN4CCOCC4)c3nc12 | -2.28%
50 | CC(=O)Nc1ccc(OCc2ccccc2)cc1 | -7.42%
51 | COc1cc(C(=O)NCCC(=O)N2CCCCC2)cc(OC)c1OC | -7.57%
52 | O=C(C(Cc1ccccc1)N1Cc2ccccc2C1=O)N1CC=C(c2ccccc2)CC1 (stereo not drawn) | 0.0322%
53 | COc1cc(OC)c(C(=O)N(Cc2nc(-c3ccc(Cl)cc3)no2)C(C)C)cc1OC | -8.9%
54 | CN1CCCN(C2CCN(CCc3ccccc3)CC2)CC1 | -1.81%
55 | O=C(c1ccco1)N1CCN(C(=O)c2c[nH]nc2C2CCNCC2)CC1 | 0.713%
56 | COc1ccc(S(=O)(=O)NCCO)cc1C(=O)O | 13.3%
57 | CCCOc1ccc(C(=O)Nc2ccc(Br)cn2)cc1 | 7.62%
58 | COc1ccc2c(C)cc(N3CCCCCC3)nc2c1 | 0.634%
59 | Cc1ccc(Nc2cccc3nonc23)cc1 | -0.988%
60 | NC(=O)c1c(NC(=O)c2cc(Br)ccc2Cl)sc2c1CCCC2 | 1.64%
61 | CC(c1ccccc1)N1CSC2=C(C#N)C(c3cccs3)CC(=O)N2C1 (stereo not drawn) | 68%
62 | CC(C)C[C@H](NC(=O)c1cccc(OCCCc2cccnc2)c1)C(=O)NCC#N | -9.15%
63 | CNS(=O)(=O)c1cn(CC(=O)NC2CCCc3ccccc32)cc1S(=O)(=O)NC (stereo not drawn) | -9.5%
64 | COc1ccc(-c2cc(-c3ccccc3)nc(OC(C)C)n2)cc1 | -6.08%
65 | CCCNC(=O)Cc1ccc(-n2c(-c3ccccc3)nc3cccnc32)cc1 | -2.56%
66 | Cc1ccc(OCCn2c(C)nc3ccccc32)cc1 | 6.2%
67 | CC(=O)Nc1ccc(S(=O)(=O)NCc2ccc(C)cc2)cc1 | -3.25%
68 | Oc1ccccc1-c1cc(-c2ccc(Cl)cc2)[nH]n1 | 1.83%
69 | CN1CCN(C(=O)c2cn(C3CCCCC3)c(=O)c3c2c2ccccc2n3C)CC1 | 5.06%
70 | O=C(CN1C(=O)CSc2ncccc21)N1CCC2(CC1)OCCO2 | -0.637%
71 | CN(C)c1ccc(C2Nc3ccccc3N=C3CC(C)(C)CC(O)=C32)cc1 (stereo not drawn) | 4.39%
72 | COCc1cc(O)n2nc(C)c(-c3ccc(OC)cc3)c2n1 | 1.72%

Row | SMILES | % Inhibition @ 10 uM
73 | COc1ccc(S(=O)Cc2ccc(C(=O)N3CCN(C(=O)c4ccco4)CC3)o2)cc1 (stereo not drawn) | 2.03%
74 | CCOC(=O)C1=C(CN2CCCC(c3ccccc3)C2)NC(=O)NC1c1cccc(OC)c1OC (stereo not drawn) | 3.75%
75 | COc1ccc(OC)c(CN2CCC(Cc3ccccc3)CC2)c1 | -0.192%
76 | Cc1cc(C)c2c(n1)SCC(=O)N2CC(=O)NCc1cccnc1 | -2.37%
77 | CC(=O)N1c2ccccc2N=C2CC(C)(C)CC(O)=C2C1c1cccs1 (stereo not drawn) | 5.24%
78 | CC1=C(C#N)C(c2ccc(Cl)cc2)C2=C(O)CC(c3ccccc3)CC2=N1 (stereo not drawn) | -3.9%
79 | O=C(Nc1ccc(Br)cn1)C1=Cc2sc3c(c2CS1)CCCC3 | 4.79%
80 | COc1ccccc1-c1c(C)nn2c(N3CC(C)CC(C)C3)cc(C)nc12 (stereo not drawn) | -1.46%
81 | O=C(CCCOc1ccc(Cl)cc1Cl)N1CCN(c2ncccn2)CC1 | -0.95%
82 | Cc1cccc(CN2CC(C)OC(C)C2)c1 (stereo not drawn) | -4.3%
83 | O=C(O)C1CC=CCC1C(=O)Nc1ccccc1 (stereo not drawn) | -1.78%
84 | COc1ccc(CN(C(=O)c2cc(=O)c3cc(Cl)ccc3o2)C2CCS(=O)(=O)C2)cc1 (stereo not drawn) | 6.38%
85 | CCCOc1ccc(C(=O)N2CCCC2)cc1OC | -2.63%
86 | CC1=CC(C)(C)N(CC(=O)c2ccc([N+](=O)[O-])cc2)c2cc(C)ccc21 | -0.771%
87 | O=C(Cn1nc(Cc2ccncc2)c2ccccc2c1=O)Nc1ccc(Cl)cn1 | -3.14%
88 | O=C(O)c1[nH]c2ccccc2c1-n1cccc1 | -1.75%
89 | COC(=O)c1ccc(-c2ccco2)n1CC(=O)NCCCc1ccccc1 | 0.943%
90 | Cc1ccc(/C=C/C2=NC(=C\c3ccc(C)o3)/C(=O)O2)cc1 | 5.32%
91 | CCOC(=O)C1CCN(C/C(C)=C/c2ccccc2)CC1 | -2.34%
92 | CCOC(=O)c1cc(-c2ccccc2)sc1NC(=O)c1cccnc1 | 2.26%
93 | CCOc1ccccc1C1C(C#N)=C(N)Oc2cc(N)ccc21 (stereo not drawn) | 2.54%
94 | CC1(C)CC(=O)C2=C(C1)N(c1ccccc1)C(N)=C(C#N)C2c1ccc2c(c1)OCO2 (stereo not drawn) | -5.07%
95 | CCN(CC)CCNC(=O)c1sc2ncn(CC(=O)N3CCCCC3)c(=O)c2c1C | -2.38%
96 | N#Cc1c(/N=C/c2ccc(O)cc2O)sc2c1C1CCN2CC1 | -3.86%
